Experimental data taken from article PMC4336329 (PLoS ONE, 2015).
The whole screen tested about 310,000 compounds, of which about 14,000 (4.5%) showed an effect of 50% or more. Effects have a minus sign here. The list shows a part of the results.

target: human ether-à-go-go-related gene (hERG) potassium channel (human, UniProt Q12809); assay: primary screen, population patch clamp on CHO cells stably expressing hERG
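Further: peak tail current of the secondary pulse compared with the same well before compound.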

Sequence of human ether-à-go-go-related gene (hERG) potassium channel (Q12809 whole entry, looked up): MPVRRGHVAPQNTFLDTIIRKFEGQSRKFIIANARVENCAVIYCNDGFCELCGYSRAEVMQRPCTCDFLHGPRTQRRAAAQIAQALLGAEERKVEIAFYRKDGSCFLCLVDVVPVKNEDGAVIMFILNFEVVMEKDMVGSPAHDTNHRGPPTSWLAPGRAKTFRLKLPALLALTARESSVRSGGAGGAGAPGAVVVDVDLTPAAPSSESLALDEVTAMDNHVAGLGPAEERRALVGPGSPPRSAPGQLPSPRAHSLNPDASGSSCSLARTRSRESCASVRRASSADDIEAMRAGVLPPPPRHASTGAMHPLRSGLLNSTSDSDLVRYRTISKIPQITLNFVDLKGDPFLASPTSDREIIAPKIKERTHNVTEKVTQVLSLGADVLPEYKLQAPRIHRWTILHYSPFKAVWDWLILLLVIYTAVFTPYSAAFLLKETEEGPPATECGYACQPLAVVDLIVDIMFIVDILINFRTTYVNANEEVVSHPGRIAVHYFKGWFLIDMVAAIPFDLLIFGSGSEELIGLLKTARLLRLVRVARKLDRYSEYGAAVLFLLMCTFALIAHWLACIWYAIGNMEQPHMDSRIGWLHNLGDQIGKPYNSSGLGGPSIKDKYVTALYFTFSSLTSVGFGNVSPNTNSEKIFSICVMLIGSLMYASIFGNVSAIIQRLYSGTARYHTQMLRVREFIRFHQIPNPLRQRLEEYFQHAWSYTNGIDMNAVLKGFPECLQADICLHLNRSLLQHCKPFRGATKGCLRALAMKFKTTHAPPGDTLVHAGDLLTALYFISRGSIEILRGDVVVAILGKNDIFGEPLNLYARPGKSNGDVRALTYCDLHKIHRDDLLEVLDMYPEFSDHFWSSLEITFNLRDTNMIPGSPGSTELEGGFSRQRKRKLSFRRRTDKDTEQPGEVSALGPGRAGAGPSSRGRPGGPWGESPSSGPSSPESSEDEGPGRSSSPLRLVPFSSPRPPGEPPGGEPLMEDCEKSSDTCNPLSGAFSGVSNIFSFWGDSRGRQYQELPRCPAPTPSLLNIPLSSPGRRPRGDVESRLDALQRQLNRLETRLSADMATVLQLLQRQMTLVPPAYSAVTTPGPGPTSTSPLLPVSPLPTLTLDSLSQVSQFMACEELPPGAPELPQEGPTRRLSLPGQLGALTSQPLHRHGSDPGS

Structure (SMILES) | hERG current change (%, negative = inhibition) at 10uM
Cc1ccc(-c2cc(C(=O)N/N=C/c3c(C)nn(C)c3C)c3ccccc3n2)cc1C | 12.6%
CCCC(C)C(=O)Nc1nnc(CCc2ccccc2)s1 (stereo not drawn) | 0.648%
COc1cc(NC(=O)CN2CCN(S(=O)(=O)c3ccc(C(C)C)cc3)CC2)cc(OC)c1 | -11.5%
COC(=O)/C(=C\c1cc(OC)c(OC)c(OC)c1)c1nc2ccccc2[nH]1.Cl | 19%
Cc1cc2oc(=O)cc(CN3CCCCC3)c2cc1C | 19.9%
c1ccc(-c2ccc(-c3ccccn3)s2)nc1 | -8.87%
Cc1onc(-c2c(Cl)cccc2Cl)c1NC(=O)NN(C)C | 20.6%
O=C1CN(C(=O)COc2ccc([N+](=O)[O-])cc2Cl)c2ccccc2N1 | -61.2%
CCOc1ccccc1N(CC(=O)NC1CCCC1)C(=O)CNC(=O)c1cccs1 | -3.75%
Cc1ccccc1NC(=O)CCN1CCN(CCO)CC1 | 15.6%
CCCN(Cc1ccccc1)C(=S)Nc1ccc(OCC)cc1 | -35.8%
COc1ccc(OC)c(-c2nc(CN3CCCCC3c3cccnc3)c(C)o2)c1 (stereo not drawn) | -1.11%
COc1ccc(CC2(CO)COc3ccccc3C2=O)cc1 (stereo not drawn) | -0.5%
C#CCSc1nnc(-c2ccc(OC)cc2)o1 | -14.3%
CC(=O)OCC(=O)[C@@]12OC(C)(C)O[C@@H]1CC1C3C[C@H](F)C4=CC(=O)C=CC4(C)[C@@]3(F)C(O)CC12C (stereo partly drawn) | 17.6%
Cl.OC(CNCc1ccc(-c2ccccc2)cc1)c1ccccc1 (stereo not drawn) | -16.1%
CCN1CCN(S(=O)(=O)c2ccc(Cl)c(C(=O)N(C)Cc3ccc(F)cc3)c2)CC1 | -25.1%
COc1ccc(S(=O)(=O)N(CC(=O)NCc2cccnc2)c2ccc(F)cc2)cc1OC | 4.62%
Cc1ccc(C(=O)N2CCC(C(=O)NC3CCCCCC3)CC2)cc1 | 11%
CCOc1cc(N2CCOCC2)c(OCC)cc1NC(=O)Cc1cccc(OC)c1 | -11%
CCCOC(=O)c1ccc(NC(=O)C2C3CCC(C3)C2C(=O)O)cc1 (stereo not drawn) | 9.04%
CN1CC2(C(=O)c3ccccc3)CN(C)CC(C(=O)c3ccccc3)(C1)C2 | -53%

Structure (SMILES) | hERG current change (%, negative = inhibition) at 10uM
Cc1cc(OC(=O)N(C)C)nc(-c2ccc(C)c(Cl)c2)n1 | -4.35%
CC(=O)C1=C(O)C(=O)N(CCCn2ccnc2)C1c1ccc(Cl)cc1 (stereo not drawn) | 7.44%
CCCCNC(=O)CSc1nc2ccccc2n1S(=O)(=O)c1ccc(Br)cc1 | -0.913%
O=c1c2ccccc2c2ccccc2c(=O)n1Cc1cccnc1 | 8.14%
CN(CC(=O)Nc1cccc(F)c1)C(=O)c1ccccc1CCc1ccccc1 | 3.08%
CS(=O)(=O)Oc1ccc(Br)cc1/C=C1/N=C(c2ccco2)OC1=O | 8.3%
CCOc1ccccc1CN1CCC(n2nccc2NC(=O)CCc2ccccc2)CC1 | -38.6%
CC(C)c1nnc(NC(=O)c2nc(S(=O)(=O)Cc3ccc(F)cc3)ncc2Cl)s1 | -1.12%
O=C(NC1CCCc2ccccc21)C1CCN(S(=O)(=O)c2ccccc2)CC1 (stereo not drawn) | -5.8%
O=C(O)CSc1nc2ccc(Cl)cc2[nH]1 | 15.4%
Cn1c(Cl)cnc1C1CC(=O)c2cc(Cl)ccc2O1 (stereo not drawn) | -18.3%
O=c1[nH]c(C2CCN(S(=O)(=O)/C=C/c3ccccc3)CC2)nc2c1nnn2Cc1ccccc1 | -15.6%
CCC1(CC)C(=O)C=CNC1=O | -2.7%
CC1=NN(c2ccccc2)C(=O)/C1=C/c1c(C)[nH]n(-c2ccc(C)cc2)c1=O | -20.9%
CC(Sc1nnc(CC(C)c2ccccc2)n1N)C(N)=O (stereo not drawn) | 7.61%
COC(=O)c1ccc(C(=S)N2CCCCC2)cc1 | 8.89%
O=C(CSc1nnc(-c2ccc(Cl)cc2)n1Cc1ccco1)Nc1ccc2c(c1)OCCO2 | -3.51%
CCOC(=O)C1CCN(C(=O)Nc2ccc3nc(-c4ccco4)c(-c4ccco4)nc3c2)CC1 | -21.3%
COC(C[C@H]1O[C@@H]1C(=O)COCc1ccccc1)OC | 4.27%
O=C(NCc1cccc(Cl)c1)c1ccc(CS(=O)Cc2ccccc2Cl)o1 (stereo not drawn) | -3.52%
Cn1c(=O)[nH]c(=O)c2c1nc(Br)n2CCSc1nnnn1-c1ccccc1 | -7.3%
CCOC(=O)C1CCN(C(=O)c2cc3c(ccc4ccccc43)o2)CC1 | -12.8%

Structure (SMILES) | hERG current change (%, negative = inhibition) at 10uM
O=C(NC1CCN(Cc2ccccc2)CC1)C1COc2ccccc2O1 (stereo not drawn) | -57.5%
CC(C)(C)NC(=O)NC(=O)COc1ccc(Br)cc1Br | -22.1%
CCOc1ccc(NC(=O)[C@@H]2CCCN2C(=O)c2cccs2)cc1S(=O)(=O)N1CCCCC1 | 10.5%
C[N+](C)(CC#Cc1ccccc1)CC(=O)c1ccc(Cl)cc1 | -28.3%
O=C(Nc1ccnn1C1CCN(Cc2ccccc2)CC1)C1CCOC1 (stereo not drawn) | 18.8%
COc1ccc(NC(=O)c2ccc3c(c2)OCO3)cc1 | 11.7%
COc1ccc(C(=O)Nc2sc(C)c(-c3ccccc3)c2C#N)cc1OC | 4.11%
Cc1cc(C)nc(/N=C(\N)N(Cc2ccccc2)Cc2ccccc2)n1 | -70.6%
Cc1cc(NC(=O)CSc2ncc(CO)n2Cc2ccc(F)cc2)no1 | 6.01%
O=C(NCCCN=C1NS(=O)(=O)c2ccccc21)c1ccncc1 | -11.8%
Brc1ccc(-c2ccc(/C=N/Nc3nc4ccccc4[nH]3)o2)cc1 | 8.63%
CCN1CCN(C(=O)c2ccc3c(Cl)c4c(nc3c2)CCCC4)CC1 | 6.65%
COC(=O)CC(NC(=O)Nc1ccccc1F)c1ccc2c(c1)OCO2 (stereo not drawn) | 18.2%
O=C(NCCCN1CCOCC1)C1CCN(S(=O)(=O)c2ccccc2)CC1 | 10.6%
O=C(NCc1ccccc1)C(c1cccnc1)N(C(=O)c1ccccn1)c1cccc(F)c1 (stereo not drawn) | 9.24%
O=C(NC(=S)Nc1cccc(NC(=S)NC(=O)c2ccco2)n1)c1ccco1 | 25.2%
N#Cc1ccccc1NC(=O)CSC1=Nc2ccccc2C2CC=NN12 (stereo not drawn) | 1.95%
CCCN1Cc2cccc(C(=O)Nc3ccc(-c4nc5ccccc5[nH]4)cc3)c2C1=O | 2.39%
COc1cc(C(=O)Nc2cccc3c2CCCC3)cc(OC)c1OC | 5.39%
Cc1ccc2[nH]c(C(=O)NN=C3CCCCC3)c(-c3ccccc3)c2c1 | -11.2%
CC(C(=O)Nc1ccccc1)N(C)CCOc1ccccc1 (stereo not drawn) | -9.45%
Cc1ccc(-n2nnnc2-c2cnn(-c3ccc(F)cc3)c2C(F)(F)F)cc1 | 11.9%

Structure (SMILES) | hERG current change (%, negative = inhibition) at 10uM
Nc1nc(CN2CCN(Cc3ccc4c(c3)OCO4)CC2)nc(Nc2ccccc2)n1 | -75.6%
CCOc1ccc(C(CC(=O)O)NC(=O)C(Sc2ccccc2)c2ccccc2)cc1 (stereo not drawn) | 23%
Cn1c(=O)c2sccc2n2c(CCCC(=O)NCCc3ccc(S(N)(=O)=O)cc3)nnc12 | 15.6%
CCCN1C2=NCCCN2c2ccccc21.Cl | -9.58%
CC1(C)CC(=O)C(N=Nc2cc(C(F)(F)F)ccc2Cl)=C(O)C1 | 15.6%
Cc1cccc(NC(=O)N2CCC(NC(=O)C3CCCCC3)CC2)c1 | 7.22%
Cc1cccc(OCC(=O)NNS(=O)(=O)c2ccccc2F)c1 | 14.5%
CCOC(=O)c1cnc(-c2ccccc2)nc1N | -2.78%
CC1CCCN(S(=O)(=O)c2ccc(C(=O)Nc3nnc(C4CC4)o3)cc2)C1 (stereo not drawn) | 1.22%
Nc1nc(NCc2ccco2)nc(Nc2cccc(F)c2)c1[N+](=O)[O-] | 22.3%
Cc1cc(C)c(S(=O)(=O)N(C)CC(=O)NCc2cccnc2)c(C)c1 | 5.05%
CCCC(=O)c1cc2c(cc1NC(=O)CC)OCCO2 | -14%
Cc1ccccc1OC(C)C(=O)NCc1cccnc1 (stereo not drawn) | 2.43%
COc1ccccc1NS(=O)(=O)c1cc(NC(=O)c2ccc(=O)[nH]c2)ccc1N1CCOCC1 | -2.74%
O=C(Nc1ccc(CN2CCOCC2)cc1)c1cc2ccccn2n1 | -21.3%
Cc1cc(CNC(=O)C2CCC(=O)N(Cc3cccc(C(F)(F)F)c3)C2)no1 (stereo not drawn) | 2.38%
COc1ccc(C(=O)N/N=C/c2ccc(OC)c(CN3CCN(c4ccc(F)cc4)CC3)c2)cc1 | -74.2%
O=C(O)/C(=C\c1cn(-c2ccccc2)nc1-c1cccnc1)NC(=O)c1ccccc1 | 7.21%
Cc1c(NC(=O)Cc2noc3ccccc23)cccc1[N+](=O)[O-] | 29.4%
CCSC1=N/C(=C\c2ccc(OC)cc2)C(=O)N1 | -0.965%
CCCN1CCN(C(=O)C(C)n2nc(C)c3sc4ccccc4c3c2=O)CC1 (stereo not drawn) | -13.3%
